Data taken from PubChem BioAssay AID1671194 (National Center for Advancing Translational Sciences (NCATS), 2021).
Where “and” joins values, the source holds several entries; their conditions need not be identical. Equal entries are not always repeated. The campaign covered roughly 140,000 compounds. About 240 (0.17%) were called active. Inconclusive results, whose numbers are uncertain, are shown with a selection of clear calls. The call rests on the fitted dose curve; in most records, active means well fitted inhibition curve with a large enough effect; inconclusive means small, poorly fitted or top-dose-only effect; inactive means no such curve, though single readings can be large or run the other way. Potencies of inconclusive entries are doubtful fits and often do not repeat.

test: Primary qHTS assay for inhibitors of alpha-synuclein gene (SNCA) expression; settings: HEK-293 SNCA-luciferase knock-in, luminescence, 24 h; activity change, negative = inhibition: at 57.2 µM (top of the series); further: nearly all actives have a fitted effect of over 45% in size
Description: Assay Submitter (PI): Daniel R. Scoles Ph.D.
Department of Neurology, University of Utah, Salt Lake City, Utah
Accumulation of alpha-synuclein is a main underlying pathological feature of Parkinson's disease (PD) and alpha-synucleinopathies, for which lowering expression of the alpha-synuclein gene (SNCA) is a potential therapeutic avenue. Using a cell-based luciferase reporter of SNCA expression we performed a quantitative high throughput screen (qHTS) of 155,885 compounds in dose response. The screening assay was generated using genome editing to insert the luciferase gene downstream and in frame of the SNCA gene in HEK-293 cells (1). A viability counterscreen using GF-AFC was used to eliminate cytotoxic and false positive compounds. After in silico analysis (clustering, removal of frequent hitter nuisance chemotypes), inhibitor compounds from the primary screen were selected for follow up and re-tested at 11-doses in the SNCA-luc cells (luciferase and GF-AFC confirmation), and in CMV-luc expressing cell line to flag general transcriptional repressors.
Described herein are the results of the primary screen for SNCA inhibitors; decrease in luciferase signal (inhibition of the SNCA gene expression) is the desired output for this assay.
1. Dansithong, W., Paul, S., Scoles, D. R., Pulst, S. M., and Huynh, D. P. (2015) Generation of SNCA Cell Models Using Zinc Finger Nuclease (ZFN) Technology for Efficient High-Throughput Drug Screening. PLoS ONE 10, e0136930.
SEQUENCE No. (e.g., 1, 2, 3, etc.); […] (e.g., Cells, Incubation, Reagent, etc.); VALUE; DESCRIPTION
1; Cells; 4 uL; Dispense 1500 HEK-293-SNCA-luc cells/well into Greiner 1536-well white / solid bottom tissue culture treated plate. The plate was covered with metal lids with gas-exchange holes.
2; Incubate; 24 hours; Incubate at 37C, 5% CO2, 95% RH.
3; Compounds; 23 nL; Compounds and controls were transferred via a Kalypsys Pin Tool (Wako USA) equipped with a 1536-slotted pin array. The plate was covered with metal lids with gas-exchange holes.
4; Incubate; 24 hours; Incubate at 37C, 5% CO2, 95% RH.
5; Dispense; 1 uL; Dispense Gly-Phe-7-amino-4-trifluoromethylcoumarin (GF-AFC, prepared at 125 uM in PBS) was added. The plate was covered with metal lids with gas-exchange holes.
6; Incubate; 30 min; Incubate at 37C, 5% CO2.
7; Detector; Fluorescence; Measure fluorescence with ViewLux microplate reader (PerkinElmer) equipped with 405/10 excitation and 540/25 emission filters.
8; Dispense; 3 uL; Dispense ONE-Glo ([…]) lucifase detection reagent was added to each well. Plates were covered with metal lids with gas-exchange holes.
9; Incubate; 15 min; Incubate at room temperature.
10; Detector; Luminescence; Measure luminescence with ViewLux microplate reader (PerkinElmer) equipped with clear filters.
NOTES (numbers refer to sequence above)
1; HEK-293-SNCA-luc were cultured and suspended in phenol-red free DMEM (4.5 g/L glucose, 25 mM HEPES, cat #21063 (Thermo)).
3; Compounds were added to the assay plate in an 11-point intra plate dose response, 1:3 titration in DMSO with a final concentration range of […]. Vehicle-only plates, with DMSO being pin-transferred to every well, were inserted at the beginning of screening runs to confirm expected assay performance. Activity was normalized to wells containing medium only (-100% activity, full inhibition) and SNCA-luc cells treated with DMSO vehicle control (0% activity), contained on the same plate as test samples.
10; Signals were analyzed, and dose-response curves were fit using the Hill equation. Compounds in curve classes -1.1, -1.2, -2.1, -2.2 in the SNCA-luc assay were considered active. Compounds were eliminated from further consideration if also active (curve class -1.1, -1.2, -1.3, -1.4, -2.1, -2.2, -2.3, -2.4) in the GF-AFC cytotoxicity assay.
Potency means the concentration at half of the fitted maximal effect; tags describe the fitted curve by direction and shape.

Structure (SMILES) | Potency | activity change, negative = inhibition
Cc1nc(-c2ccc(N(C)C)cc2)cc([C@H]2CN3CC[C@H]2C[C@@H]3COC(=O)Nc2ccccc2)n1 | inconclusive: 31.6 µM [inhibitor, partial curve, poor fit] | –
O=C1NC2(CCCN(Cc3cccnc3)C2)COc2ccccc21 (stereo not drawn) | inconclusive: 7.94 µM [inhibitor, single point] | –
COCCN1C(=O)CS(=O)(=O)C12CCNCC2 | inconclusive: 1.41 µM [inhibitor, full curve, poor fit] | –
Cc1nc(-c2cccs2)cc([C@H]2CN3CC[C@H]2C[C@@H]3COC(=O)Nc2ccc(C(C)C)cc2)n1 | inconclusive: 39.8 µM [inhibitor, single point] | –
CC[C@H]1CN2CC[C@H]1C[C@@H]2CNCc1ccc(SC)cc1 | inconclusive: 25.1 µM [inhibitor, single point] | –
COc1ccc(NC(=O)N2[C@H]3CC[C@@H]2c2cnc(C)nc2C3)cc1F | inconclusive: 1.12 µM [inhibitor, full curve] | –
Cc1cccc(NC(=O)Cn2cc(C(=O)c3ccccc3)c3ccccc32)c1 | inconclusive: 20 µM [inhibitor, single point] | –
c1ccc(CCCN2CCN(CCOC(c3ccccc3)c3ccccc3)CC2)cc1 | inconclusive: 42.9 µM [inhibitor, single point] and inconclusive: 10 µM [inhibitor, partial curve, poor fit] | –
COc1ccccc1-c1cc([C@H]2CN3CC[C@H]2C[C@@H]3COC(=O)NC(C)C)nc(C)n1 | inconclusive: 20 µM [inhibitor, partial curve, poor fit] | –
Cc1nc(-c2ccc(N(C)C)cc2)cc([C@H]2CN3CC[C@H]2C[C@@H]3CNC(=O)C2CCC2)n1 | inconclusive: 15.8 µM [inhibitor, partial curve, poor fit] | –
O=C(C1CCOCC1)N1CCC2(CC1)NCc1ccccc1-n1ccnc12 | inconclusive: 35.5 µM [inhibitor, single point] | –
Cc1ccc(-c2nc(CN3C(=O)CN=C(c4ccccc4)c4cc(Cl)ccc43)c(C)o2)cc1 | inconclusive: 15.8 µM [inhibitor, partial curve, poor fit] | –
COc1cc2c(cc1OC1CCCC1)NC(=O)C21CCN(c2ncc(F)cn2)CC1 | inactive | –
COc1ccc(-c2cc([C@H]3CN4CC[C@H]3C[C@@H]4COC(=O)Nc3ccc(C(C)C)cc3)n(C)n2)cc1OC | inconclusive: 39.8 µM [inhibitor, single point] | –
O=C(Oc1ccc([N+](=O)[O-])cc1)N1CCN(Cc2cccc(Oc3ccccc3)c2)CC1 | – | inconclusive: -49.7% [inhibitor]
Cn1nc(C2CCCC2)cc1[C@H]1CN2CC[C@H]1C[C@@H]2CNC(=O)Nc1ccccc1 | inactive | –
COc1cc2c(cc1Oc1cccc(N(C)C)c1)NC(=O)C21CCN(Cc2nccn2C)CC1 | inactive | –
Cc1ccccc1CN1C(=O)CN=C(c2ccccc2)c2cc(Cl)ccc21 | inconclusive: 35.5 µM [inhibitor, partial curve, poor fit] | –
CCOC(=O)[C@H]1CN(C(=O)Cc2ccc(OC)cc2)[C@]2(C)C(=O)N(CC3CC3)c3ccccc3[C@H]12 | inactive | –

Structure (SMILES) | Potency | activity change, negative = inhibition
Cc1nc(-c2ccc(C(F)(F)F)cc2)cc([C@H]2CN3CC[C@H]2C[C@@H]3CNC(=O)C(C)(C)C)n1 | inconclusive: 7.94 µM [inhibitor, single point] | –
Cc1nc(-c2ccc(C(F)(F)F)cc2)cc([C@H]2CN3CC[C@H]2C[C@@H]3CNC(=O)CCCC(=O)O)n1 | inactive | –
CC(C)CCN1CCC(N2CCN(C(=O)Cc3ccccc3F)CC2)C1=O (stereo not drawn) | inconclusive: 8.91 µM [inhibitor, single point] | –
CCCc1nc(C)cc(N2CCC3(CC2)CNC(C(=O)O)C3)n1 (stereo not drawn) | inconclusive: 39.8 µM [inhibitor, single point] | –
CC[n+]1c(-c2ccccc2)c2cc(N)ccc2c2ccc(N)cc21 | inactive | –
O=S(=O)(NC[C@H]1C[C@@H]2CCN1C[C@@H]2CN1CCN(c2ncccn2)CC1)c1ccc(Cl)cc1 | inactive | –
O=c1c2ccccc2nc(/C=C/c2cccc3ccccc23)n1-c1ccccc1Cl | inconclusive: 25.1 µM [inhibitor, partial curve, poor fit] | –
Cc1nnc2n1CCC(NC(=O)c1nn(C)c3ccccc13)CC2 (stereo not drawn) | inactive | –
Cc1cccc(-n2c(/C=C/c3ccccc3O)nc3ccccc3c2=O)c1 | inconclusive: 25.1 µM [inhibitor, partial curve, poor fit] | –
CCOC(=O)[C@H]1CN(C(=O)c2ccccc2)[C@]2(C)C(=O)N(CC3CC3)c3ccccc3[C@H]12 | inactive | –
CS(=O)(=O)N1C[C@H]2CCN(Cc3ccncc3F)C[C@H]21 | inconclusive: 31.6 µM [inhibitor, single point] | –
Cc1[nH]nc2ccc(-c3cncc(OC[C@@H](N)Cc4c[nH]c5ccccc45)c3)cc12 | active: 0.108 µM | –
CO[C@H]1CCC(O[C@H]2C[C@H]([C@]3(C)CC[C@]4(C[C@H](O)[C@@H](C)[C@@H]([C@@H](C)C=C(C)C(=O)[C@H](C)C[C@H](C)C(=O)O)O4)O3)O[C@]3(O[C@@H]([C@H]4O[C@@](O)(CO)[C@H](C)C[C@H]4C)C[C@H]3C)[C@H]2C)O[C@H]1C (stereo partly drawn) | inconclusive: 27.1 µM [inhibitor, partial curve, poor fit] | –
c1cncc(C2=NOC3(CCCN(CC4CCCCC4)C3)C2)c1 (stereo not drawn) | inconclusive: 3.55 µM [inhibitor, full curve, poor fit] | –
COc1ccc(-c2cc3c(cn2)CN(C)CCN3)cn1 | inactive | –
O[C@H]1COCCN(C2CCOCC2)C1 | inconclusive: 10 µM [inhibitor, full curve, poor fit] | –
CCOC(=O)[C@H]1CN(C(=O)/C=C/c2ccccc2)[C@]2(C)C(=O)N(C)c3ccccc3[C@H]12 | inactive | –
Cc1nc(-c2cccs2)cc([C@H]2CN3CC[C@H]2C[C@@H]3CNC(=O)C2CC2)n1 | inactive | –
CC(=O)[O][Hg][c]1ccccc1 | inconclusive: 11.2 µM [inhibitor, partial curve, poor fit] | –
